Patent publication US20230087128A1 (KEROS THERAPEUTICS, published 2023)

How the values were obtained:
Assay in all cases: SPR (Biacore 3000), Fc fusion captured, ligand in solution
[1] = molecular target: T1, Activin A (UniProt P08476 311-426)
T1 sequence (looked up): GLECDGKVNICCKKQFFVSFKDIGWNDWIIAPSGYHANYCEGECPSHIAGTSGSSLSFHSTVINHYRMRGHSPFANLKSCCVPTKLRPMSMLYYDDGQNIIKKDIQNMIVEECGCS
From the text: (§1) The GE Biacore 3000 was used to measure the kinetics of the interactions between the ActRIIB-Fc variants and the ligands Activin A, Activin B, growth differentiation factor 11 (GDF11), and BMP-9. […] All other ActRIIB-Fc variants were expressed by transient expression in HEK293 cells and purified from the conditioned media using Protein-A Sepharose chromatography. Flow cells 1-4 were immobilized with anti-human/anti-mouse capture antibodies from GE using the amine coupling kit. The ActRII-Fc proteins were then captured on the chip in flow cells 2-4, with flow cell 1 being left empty as a reference cell to measure and subtract any nonspecific binding. HBS-EP+ buffer from GE Healthcare™ was used as a running buffer. Each ligand was run in a duplicate concentration series at 40 μl/min to avoid mass transport effects. All data was collected on a CM-5 chip except for GDF-11, which used CM-4. The data was analyzed using Scrubber2 by BioLogic™ Software to calculate the KD of each interaction (Table 4).

[2] = molecular target: T2, Activin B (UniProt P09529 293-407)
T2 sequence (looked up): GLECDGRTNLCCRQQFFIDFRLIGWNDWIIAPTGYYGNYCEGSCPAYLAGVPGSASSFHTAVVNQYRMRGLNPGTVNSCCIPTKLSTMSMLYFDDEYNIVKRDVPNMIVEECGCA
From the text: as §1

[3] = molecular target: T3, growth differentiation factor 11 (GDF11) (UniProt O95390 299-407)
T3 sequence (looked up): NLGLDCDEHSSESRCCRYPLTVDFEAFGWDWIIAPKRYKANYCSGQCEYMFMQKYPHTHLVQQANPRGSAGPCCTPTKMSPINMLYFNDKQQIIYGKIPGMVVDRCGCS
From the text: as §1

[4] = molecular target: T4, BMP-9 (UniProt Q9UK05 320-429)
T4 construct: also called bone morphogenetic protein 9
T4 sequence (looked up): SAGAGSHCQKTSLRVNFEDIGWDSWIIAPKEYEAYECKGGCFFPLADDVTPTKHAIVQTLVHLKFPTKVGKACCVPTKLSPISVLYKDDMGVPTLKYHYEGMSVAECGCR
From the text: as §1

Kd [1]: 1000 pM
Kd [2]: 370 pM
Kd [3]: 81 pM
Kd [4]: 25000 pM
B1: ActRIIA (SEQ ID NO: 16)-Fc (Fc fusion, not shown: a dimerising Fc or GST)
chain: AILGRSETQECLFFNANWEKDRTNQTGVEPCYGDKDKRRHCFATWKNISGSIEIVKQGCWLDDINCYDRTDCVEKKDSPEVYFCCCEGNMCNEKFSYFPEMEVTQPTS
notes: Recombinant ActRII-Fc protein captured by anti-human/anti-mouse antibodies; also called ActRIIA-Fc
